The target of one test is human CLDN18.2 (human). As to the kind of experiment: cell-based or functional assay.
The next test addresses T1, human CLDN18.1 (human, UniProt P56856 1-261).
T1 construct: Full length, overexpressed on HEK293 cells; also called hCLDN18.1; human CLDN18.1-HEK293
As to the kind of experiment: flow cytometry on human CLDN18.1-HEK293 cells. For orientation: In flow cytometry, cells or beads pass a laser one at a time.

The target of a further test is T2, mouse CLDN18.1 (mouse, UniProt P56857 1-264).
T2 construct: Full length, overexpressed on HEK293 cells; also called mouse CLDN18.1-HEK293
As to the kind of experiment: flow cytometry on mouse CLDN18.1-HEK293 cells.

human CLDN18.1, sequence (P56856 whole entry): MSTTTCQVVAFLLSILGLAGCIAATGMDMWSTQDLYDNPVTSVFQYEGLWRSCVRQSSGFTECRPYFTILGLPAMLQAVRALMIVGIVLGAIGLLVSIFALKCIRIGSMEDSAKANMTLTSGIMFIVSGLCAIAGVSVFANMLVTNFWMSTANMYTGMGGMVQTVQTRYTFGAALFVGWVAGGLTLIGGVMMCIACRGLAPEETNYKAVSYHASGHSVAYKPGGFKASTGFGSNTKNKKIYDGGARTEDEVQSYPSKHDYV
mouse CLDN18.1, sequence (P56857 whole entry): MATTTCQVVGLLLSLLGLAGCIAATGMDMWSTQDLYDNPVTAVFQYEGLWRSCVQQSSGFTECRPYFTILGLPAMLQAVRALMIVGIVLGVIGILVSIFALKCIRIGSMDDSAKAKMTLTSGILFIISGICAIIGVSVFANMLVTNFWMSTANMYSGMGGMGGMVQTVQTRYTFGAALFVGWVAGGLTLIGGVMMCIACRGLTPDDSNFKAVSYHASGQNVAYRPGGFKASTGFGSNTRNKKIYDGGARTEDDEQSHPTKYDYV

B1: chimeric antibody NA1-S (Fc fusion)
chain: EVQVQESGGGLVQAGTSLRLSCAASGNIFRIDTMGWYRQAPGKQRELVAGISRGGTTTYAHSVKERFTISRDNAKNTMYLQMNSLKSEDTAGYYCNAQAWDPGTFRYLEVWGQGTLVTVSA[human IgG1 Fc omitted]
notes: VHH-Fc (hIgG1); also called candidate antibody NA1-S; NA1-S antibody
With B1, the “CDC cell killing on human CLDN18.2-KATOIII tumor cells, EC50” value in the test with human CLDN18.2 was determined as 1.91 nM. Also, the “Fab-ZAP cell killing (internalization) on CLDN18.2-HEK293T cells, IC50” value in the test with human CLDN18.2 amounted to 0.1 nM. The binding result with human CLDN18.1 and with mouse CLDN18.1 was “no binding (tested: 10 µg/mL)” throughout.

B2: chimeric antibody NA3-S (Fc fusion)
chain: QVQLQESGGGLVQPGGSLRLSCAASGSIFNIPVMGWYRQAPGKQRELVAGISTGGTTNYGDSVKGRFTISRDNAKNTVYLQMNSLKPEDTAVYYCNVLVVSGIGSTLEVWGQGTLVTVS[human IgG1 Fc omitted]
notes: VHH-Fc (hIgG1); also called candidate antibody NA3-S; NA3-S antibody
As to B2, in the test with human CLDN18.2, the “CDC cell killing on human CLDN18.2-KATOIII tumor cells, EC50” value was 4.83 nM and the “Fab-ZAP cell killing (internalization) on CLDN18.2-HEK293T cells, IC50” value was found to be 0.07 nM. In the test with human CLDN18.1, the binding result was “no binding (tested: 10 µg/mL)”. Also, the binding result with mouse CLDN18.1 is “no binding (tested: 10 µg/mL)”.

B3: chimeric antibody NA6-S (Fc fusion)
chain: QVQLQESGGGLVQPGGSLRLSCAASGTFFNIPVMGWYRQAPGKQRELVAGISTGGTTNYGDSVKGRFTISRDNAKNTVYLQMNSLKPEDTAVYYCNVLVISGIGSHLEVWGQGTLVTVS[human IgG1 Fc omitted]
notes: VHH-Fc (hIgG1); also called candidate antibody NA6-S; NA6-S antibody
For the molecule B3, the binding result in the test with human CLDN18.1 and with mouse CLDN18.1 was “no binding (tested: 10 µg/mL)” each time.

B4: chimeric antibody NA5-S (Fc fusion)
chain: EVQVVESGGGLVQPGGSLRLSCAASGSILHIPVMSWYRQAPGKQRELVAGISTGGTTNYGDSVKGRFTISRDNAKNTVYLQMNSLKPEDTAAYYCNVLVVSGIGSHLEVWGQGTLVTVSS[human IgG1 Fc omitted]
notes: VHH-Fc (hIgG1); also called candidate antibody NA5-S; NA5-S antibody
Consider B4, for which the binding result with human CLDN18.1 and in the test with mouse CLDN18.1 was “no binding (tested: 10 µg/mL)” each time.

The values are drawn from patent publication US20220396616A1 (SANYOU BIOPHARMACEUTICALS, published 2022).
